24 molecules from paper PMC4336329 (PLoS ONE, 2015) can be followed below.

About 2,200 (0.71%) of roughly 310,000 compounds showed an effect of 50% or more. Effects have a minus sign here. This is one part of the list.

Chain of human ether-à-go-go-related gene (hERG) potassium channel (Q12809 whole entry, looked up): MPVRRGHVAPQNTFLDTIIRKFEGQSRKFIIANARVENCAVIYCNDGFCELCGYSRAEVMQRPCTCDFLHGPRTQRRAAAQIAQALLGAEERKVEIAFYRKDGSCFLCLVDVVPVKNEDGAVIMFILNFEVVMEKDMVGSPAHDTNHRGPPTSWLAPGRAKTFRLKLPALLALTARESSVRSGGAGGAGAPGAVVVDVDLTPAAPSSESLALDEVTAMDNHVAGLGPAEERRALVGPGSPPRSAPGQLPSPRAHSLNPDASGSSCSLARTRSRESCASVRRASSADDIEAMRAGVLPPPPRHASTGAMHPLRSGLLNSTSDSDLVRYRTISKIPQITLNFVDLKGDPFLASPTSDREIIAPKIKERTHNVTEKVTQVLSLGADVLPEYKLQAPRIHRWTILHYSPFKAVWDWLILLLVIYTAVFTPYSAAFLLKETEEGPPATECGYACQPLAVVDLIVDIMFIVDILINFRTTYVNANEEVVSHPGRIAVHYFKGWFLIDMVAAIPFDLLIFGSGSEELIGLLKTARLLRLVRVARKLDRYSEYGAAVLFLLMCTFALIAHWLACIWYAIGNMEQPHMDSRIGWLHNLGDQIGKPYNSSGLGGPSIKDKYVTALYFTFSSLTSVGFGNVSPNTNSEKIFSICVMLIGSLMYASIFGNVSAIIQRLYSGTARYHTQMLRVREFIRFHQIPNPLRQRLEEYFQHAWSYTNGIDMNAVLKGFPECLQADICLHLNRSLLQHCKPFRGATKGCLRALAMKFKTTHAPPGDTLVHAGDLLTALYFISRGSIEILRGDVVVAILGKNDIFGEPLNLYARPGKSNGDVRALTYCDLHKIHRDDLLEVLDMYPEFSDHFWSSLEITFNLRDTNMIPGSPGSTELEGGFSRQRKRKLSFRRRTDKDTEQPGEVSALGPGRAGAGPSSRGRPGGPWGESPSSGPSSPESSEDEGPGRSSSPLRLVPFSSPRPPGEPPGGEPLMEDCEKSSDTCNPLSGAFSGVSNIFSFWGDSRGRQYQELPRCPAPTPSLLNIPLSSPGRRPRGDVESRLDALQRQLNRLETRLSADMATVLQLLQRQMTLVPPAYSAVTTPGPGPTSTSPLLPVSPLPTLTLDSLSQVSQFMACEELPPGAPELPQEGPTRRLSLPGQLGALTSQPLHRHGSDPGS

The assay concerns the target human ether-à-go-go-related gene (hERG) potassium channel (human, UniProt Q12809). Nature of the assay: primary screen, population patch clamp on CHO cells stably expressing hERG.
Consider `Cc1[nH]n(C)c(=O)c1[N+](=O)[O-]`, for which the “hERG current change (%, negative = inhibition) at 1uM” value is 8.01%.
Regarding `O=C(O)c1cccnc1SCc1cn2cc(Cl)ccc2n1`, the “hERG current change (%, negative = inhibition) at 1uM” value amounted to 11.7%.
On to `CCN(CC)CCNC(=O)C1c2cc(OC)c(OC)cc2C(=O)N(C)C1c1cccs1` (stereo not drawn), for which the “hERG current change (%, negative = inhibition) at 1uM” value is recorded as 7.41%.
For the molecule `O=C(COC(=O)c1ccc(S(=O)(=O)N2CCCC2)cc1)NCc1ccccc1`, the “hERG current change (%, negative = inhibition) at 1uM” value is 9.69%.
Take `O=C(CSCc1cnn(-c2ccccc2)c1-n1cccc1)NCc1ccccn1`: the “hERG current change (%, negative = inhibition) at 1uM” value is recorded as -2.01%.
As to `CCOc1ccc(-c2nnc(-c3cccs3)o2)cc1OCC`, the “hERG current change (%, negative = inhibition) at 1uM” value turned out to be 10.2%.
For `Fc1cccc(Cl)c1Cn1nnc2c(NCc3ccccn3)ncnc21`, the “hERG current change (%, negative = inhibition) at 1uM” value is reported as 3.08%.
Regarding `O=C(O)c1ccc2c(=O)n(-c3ccccc3)c(=S)[nH]c2c1`, the “hERG current change (%, negative = inhibition) at 1uM” value is recorded as 8.52%.
With `CCN(CC)C(=O)CSc1nc2cc3c(cc2c(=O)n1Cc1ccc2c(c1)OCO2)OCO3`, the “hERG current change (%, negative = inhibition) at 1uM” value worked out at 5.9%.
`CC(=O)NCc1ccc(C(=O)O)cc1`: the “hERG current change (%, negative = inhibition) at 1uM” value is 11.7%.
Consider `Cc1cc(C)c(N2C(=NC(=O)CCCC(=O)O)SC3CS(=O)(=O)CC32)c(C)c1` (stereo not drawn), for which the “hERG current change (%, negative = inhibition) at 1uM” value came to 16.5%.
On to `CCc1ccc(C(=O)COC(=O)CNC(=O)CNS(=O)(=O)c2ccccc2)cc1`, for which the “hERG current change (%, negative = inhibition) at 1uM” value was -2.67%.
For `COc1ccc(OCc2cc(C(=O)N3CCCC(CO)C3)no2)c2ccccc12` (stereo not drawn), the “hERG current change (%, negative = inhibition) at 1uM” value is recorded as -1.11%.
`CC(Sc1nn(-c2ccc(F)cc2)c(=S)s1)C(=O)c1c(N)n(C)c(=O)n(C)c1=O` (stereo not drawn): the “hERG current change (%, negative = inhibition) at 1uM” value is on record as 15.5%.
In the case of `Cc1[nH]n(-c2ccccc2)c(=O)c1C=Nc1ccc(S(=O)(=O)N(C)C)cc1`, the “hERG current change (%, negative = inhibition) at 1uM” value was determined as 9.29%.
Next, `COc1ccc(C)cc1NC(=O)CN(C)S(=O)(=O)c1cccs1`: -4.53%; `COc1ccc(Nc2nc(-c3cccc([N+](=O)[O-])c3)nc3ccccc23)c(OC)c1`: 17.2%; `O=c1oc2ccccc2n1CCn1c2ccccc2c2nc3ccccc3nc21`: 12.5%.
Regarding `CCCOC(=O)C1=C(C)NC2=C(C(=O)C(C(=O)OC)C(C)C2)C1c1ccc(N(C)C)cc1` (stereo not drawn), the “hERG current change (%, negative = inhibition) at 1uM” value was found to be 3.83%.
With `Cn1c(CO)nc2cc(N)ccc21`, the “hERG current change (%, negative = inhibition) at 1uM” value is 6.75%.
`N#Cc1ccc2ccn(CC(=O)N3CCCc4ccccc43)c2c1`: the “hERG current change (%, negative = inhibition) at 1uM” value amounted to 5.62%.
For `COc1ccc(NC(=O)CN(C)C(=O)c2cn(-c3ccccc3)nc2-c2cccs2)cc1`, the “hERG current change (%, negative = inhibition) at 1uM” value was determined as 4.14%.
Next, `COc1ccc(Cc2noc(-c3ccc([N+](=O)[O-])cc3)n2)cc1OC`: 11.6%; `CC(C(=O)OCC(=O)c1ccc([N+](=O)[O-])cc1)N1C(=O)C2C3CCC(C3)C2C1=O` (stereo not drawn): 9.29%.
